The source of these data is the supplement of paper PMC4604168 (melanoma cell lines).

The other results are listed elsewhere or left out. Repeats are few or missing, and single values can be far off.
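Also: cell number obtained by counting DAPI-stained nuclei in high-throughput microscope images with image analysis software, screen run in 1,536-well plates.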

For the assay, the system named is MZ2-MEL. Kind of assay: cell count relative to DMSO control; melanoma cells; higher = more viable cells. The following applies: library dose: low library concentration; 72 h.
`OCc1c[nH]c2ccccc12` [Indole-3-carbinol] + CN(C)S(=O)(=O)c1ccc2c(c1)/C(=C/c1cc3c([nH]1)CCCC3)C(=O)N2 [SU6656] (first compound 0.8 µM, partner dose 0.4 µM) gave a cell count of 108%.
In turn, `COCC[n+]1c2c(n(Cc3cnccn3)c1C)C(=O)c1ccccc1C2=O` + NC(=O)Nc1cc(-c2cccc(F)c2)sc1C(=O)N[C@H]1CCCNC1 [AZD7762] (first compound 0.0004 µM, partner dose 0.02 µM) displayed a cell count of 50.7%.
`Nc1cccc2c1CN(C1CCC(=O)NC1=O)C2=O` (centres undefined) [lenalidomide] + O=C(O)c1ccc(-c2c[nH]c3ncc(-c4ccccc4)cc23)cc1C1CCCC1 [GSK650394] (first compound 1 µM, partner dose 0.16 µM): the cell count came out at 103%.
For `COCC[n+]1c2c(n(Cc3cnccn3)c1C)C(=O)c1ccccc1C2=O` + Cn1cncc1[C@@](N)(c1ccc(Cl)cc1)c1ccc2c(c1)c(-c1cccc(Cl)c1)cc(=O)n2C [tipifarnib] (first compound 0.0004 µM, partner dose 0.01 µM), the cell count came out at 50.7%.
